# Data published in ChEMBL document CHEMBL4888484, “Replenishing the malaria drug discovery pipeline: Screening and hit evaluation of the MMV Hit Generation Library 1 (HGL1) against asexual blood stage Plasmodium falciparum ,using a nano luciferase reporter read-out” (2022).
# Several values for one entry are separate records, joined by “and”; a condition that tells them apart may be missing. Equal entries are not always repeated. The campaign covered roughly 150,000 compounds. About 540 (0.36%) showed an effect of 50% or more. This is one part of the list.
# Test system: Plasmodium falciparum
# Assay: Primary screen in NF54 nanoGlo assay, in single point, at 2uM, 72h; a lower Z score goes with more inhibition
# Assay type: functional, Erythrocyte
# Details: timepoint 72 hour
SMILES,% Inhibition,Z score,% Inhibition (2 µM),Z score (2 µM)
O=c1c2ccccc2nnn1C[C@H]1CC[C@H](C(=O)N2CCC3(CC2)OCCO3)CC1,-17%,2.4,–,–
O[C@@H](CNC1CCCCCC1)C(F)(F)F,-8%,0.99,–,–
CC(=O)NCC(=O)NCC(=O)N[C@@H](C)Cc1ccc(C)cc1C,-13%,1.73,–,–
COc1nc(C)cc(C)c1Cn1ccnc1-c1ccco1,-8%,0.92,–,–
CN1C[C@H]2CN(Cc3cncs3)C[C@@]2(C(=O)O)C1,-23%,2.26,–,–
CCCCNC(=O)NCc1cncnc1N,-6%,1.13,–,–
Cc1cc(C[C@H](C)NCc2cn(C(C)C)nc2C)n[nH]1,8%,-0.98,–,–
Cc1nnc(CN2CC[C@@H]3CCCC[C@H]3C2)s1,-19%,2.15,–,–
CCc1nnc2ccc(N3CC[C@@]4(CCCN(C)C4)C3)nn12,-13%,1.28,–,–
O=C(c1cc(-c2ccncc2)n(-c2ccccc2)n1)N1CCC2(CC1)OCCO2,-1%,0.2,–,–
c1cc(-c2ccncc2)cc(N2CCNCC2)c1,-3%,0.5,–,–
Cc1ccc(OCCN(C)[C@@H](C)Cc2cnccn2)c(C)c1,-3%,0.56,–,–
CCNC(=O)N1C[C@H](c2cccc(F)c2F)[C@@H]2[C@H]1C1CCN2CC1,6%,-0.72,–,–
O=C(C[C@@H]1NC(=O)N(Cc2cccc(Cl)c2)C1=O)N1C[C@@H]2C[C@@H](C1)c1cccc(=O)n1C2,-16%,2.03,–,–
CC12CCC(C(=O)Nc3ccc(Cl)cc3C(=O)c3ccccc3)(CC1=O)C2(C)C (stereo not given),-3%,0.51,–,–
Cc1ccccc1C(=O)N1CCC2(CC1)N(c1ccccc1)C(=O)CS2(=O)=O,-5%,0.71,–,–
O=C(c1onc2ccccc12)N1CCC2(CC1)NCCNC2=O,-16%,2.06,–,–
CC1(O)C[C@]2(C)N(O)C3CCCC[C@@H]3N2O1 (stereo not given in full),3%,-0.35,–,–
Cc1nc(NCCc2c[nH]cn2)cc([C@H]2C[C@@H](O)C2)n1,3%,-0.48,–,–
COc1ccccc1N1CCN(C(=O)c2cnc(-c3ccccc3)nc2N(C)C2CCN(C)CC2)CC1,-12%,1.31,–,–
CN(CCc1ccccn1)CC1CCCCC1,11%,-1.63,–,–
CCn1nc(C)c(C(=O)N2C[C@H](c3ccccc3)[C@@H]3[C@H]2C2CCN3CC2)c1C,4%,-0.44,–,–

SMILES,% Inhibition,Z score,% Inhibition (2 µM),Z score (2 µM)
c1ccc(CC2CC3CCC(C2)N3)cc1 (stereo not given),-10%,0.85,–,–
COCCn1c(C(=O)N[C@H](c2ccccc2)c2nc3ccccc3[nH]2)cc2ccccc21,–,–,-18% and -10%,2.27 and 1.6
Cc1ccc(C)c(N(C)C(=O)CCc2nc(C3=CCN(C)CC3)no2)c1,-16%,1.99,–,–
CCn1c(=O)cc(Cl)n(CC(=O)N2CCC3(CC2)OCCO3)c1=O,-5%,1,–,–
CC(C)(C)CC(C)(C)c1ccc(OC(=O)NC(C)(C(F)(F)F)C(F)(F)F)cc1,-12%,1.24,–,–
ON1C2CCCCC2N(O)C1c1ccco1 (stereo not given),13%,-1.74,–,–
CCCNC(=O)OC[C@H]1C[C@@H]2CCN1C[C@@H]2c1cc(-c2ccc(N(C)C)cc2)nc(C)n1,-13%,1.66,–,–
O=C(Cc1cccc2ccccc12)Nc1ccc(-c2noc(=O)[nH]2)cc1,-3%,0.33,–,–
COc1ccc(C(C)NC(C)Cn2cncn2)c(OC)c1 (stereo not given),-4%,0.48,–,–
Cc1oc(-c2ccccc2)nc1CN1C(=O)CN=C(c2ccc(F)cc2)c2c1sc(C)c2C,-7%,0.98,–,–
CCc1cc(C(=O)N2C[C@H](c3ccccc3)[C@@H]3[C@H]2C2CCN3CC2)ccn1,-2%,0.45,–,–
CO[C@]12ONC(c3ccccc3O)C1N1CCC2CC1 (stereo not given in full),-16%,2.03,–,–
Cc1c(C)[n+]([O-])c([C@@H](c2ccc(F)c(F)c2)C2C(=O)NC(=O)NC2=O)n1CCO,-10%,1.3,–,–
O=C(c1ccn2c(-c3ccccc3)nnc2c1)N1CCC2(CC1)OCCO2,-6%,0.65,–,–
O=C1CCCN1CC(=O)N(CCC1=CCCCC1)Cc1ccc(Cl)cc1,-21%,2.72,–,–
Nc1nnc(CCN2CCOCC2)s1,0%,0.04,–,–
COC(=O)C1(c2ccccc2)CCN(C(=O)[C@@H]2COCCO2)CC1,-10%,1.78,–,–
CCc1ccc(CCN(C)Cc2conc2CC)cc1,-9%,1.75,–,–
Cc1ccc2c(c1)CCN[C@H]2C(C)(C)C,-7%,0.87,–,–
CC1CC(NCC2CCCCC2OCC(F)(F)F)CC(C)O1 (stereo not given),-3%,0.37,–,–
CCn1nc(C)cc1C(=O)N1C[C@H](c2ccccc2)[C@@H]2[C@H]1C1CCN2CC1,2%,-0.31,–,–
FC(F)(F)c1ccc(-c2cccc3c2CCNC3)nc1,-5%,0.79,–,–

SMILES,% Inhibition,Z score,% Inhibition (2 µM),Z score (2 µM)
CC(C)c1noc(N2CCC3CCC(C2)N3C)n1 (stereo not given),-14%,1.95,–,–
CCOCCC(=O)N1C[C@@H]2CC[C@H]1CN(Cc1ccccn1)C2,-3%,0.6,–,–
CC1CCN(CN2C(=O)N[C@]3(CN4CCC3CC4)C2=O)CC1,-8%,1.08,–,–
CN(CC#CCN(C)C1CCOC1)C1CCOC1 (stereo not given),4%,-0.52,–,–
CC12CN(CC#N)CC(C)(CN(CC#N)C1)C2=O,-3%,0.34,–,–
CN1CCN(CCO[C@@H](c2cccc(Cl)c2)c2ccccc2Cl)CC1,35%,-4.48,–,–
COCCS(=O)(=O)Nc1ccc(C#N)c(Cl)c1,-12%,1.57,–,–
CC(C)=CCN1C[C@@H]2CC[C@H]1CN(C(=O)Cc1sc(C)nc1C)C2,2%,-0.34,–,–
CN1C[C@@H]2CC[C@H](CC1=O)N2Cc1cnc(-c2ccco2)nc1,-12%,1.18,–,–
CC1CCC(C(C)C)C(OC(=O)c2ccccc2N)C1 (stereo not given) [MERADIMATE],0%,0.01,–,–
Cc1nc2c(c(N[C@@H]3[C@@H]4CCO[C@@H]4[C@H]3N3CCCC3)n1)CCC2,0%,0.01,–,–
c1ccc2c(CNCCc3ccc4c(c3)OCO4)c[nH]c2c1,-9%,1.75,–,–
CC(O)C(O)CN1CCCN(C(=O)Oc2ccccc2)CC1 (stereo not given),-15%,2.81,–,–
N#CC1(NS(=O)(=O)c2ccc(S(=O)(=O)F)cc2)CCC1,4%,-0.49,–,–
CCOc1ccc(C[C@H]2C(=O)NC(=O)N(CCc3ccc(OC)c(OC)c3)C2=O)cc1,30%,-3.4,–,–
COCCOC[C@H]1CCN(CC(F)F)C1,-9%,1.35,–,–
N#Cc1ccccc1COc1cccc(C(=O)N2CCC3(CC2)OCCO3)c1,3%,-0.47,–,–
CC(NC(=O)C1CC2CCCCN2C1)C(C)(C)C (stereo not given),-9%,1.26,–,–
O=C(c1ccc2nnnn2c1)N1C[C@H](c2ccccc2)[C@@H]2[C@H]1C1CCN2CC1,0%,-0.02,–,–
CCN1CCC[C@H](NC(C2CCC2)C2CCC2)C1,35%,-1.11,–,–
COc1ccc(CN2C[C@@H]3C[C@H](C2)c2c(-c4ccccc4F)ccc(=O)n2C3)cc1,-6%,0.98,–,–
Cc1cc(CC(=O)N2CC(N3CCCC[C@@H]3C)C2)on1,-4%,0.78,–,–

SMILES,% Inhibition,Z score,% Inhibition (2 µM),Z score (2 µM)
FC1(F)CCC12CN(Cc1cccs1)C2,-4%,0.45,–,–
CC(C)Cn1cc(CN2CC(C)CC2c2cccnc2)cn1 (stereo not given),-12%,1.55,–,–
CC1(CNC2CCCC(C(F)(F)F)C2)OCCO1 (stereo not given),-3%,0.28,–,–
CCOCCCNC(=O)c1c(COc2ccc(C)cc2)n(CCN2CCOCC2)c(C)cc1=O,3%,-0.28,–,–
Cc1ccccc1CC(=O)N1CCN(C)[C@@]2(CCNC(=O)CC2)C1,-13%,2.28,–,–
COc1ccc(-c2nc(CN3C(=O)CN=C(c4ccccc4Cl)c4cc(Cl)ccc43)c(C)o2)cc1OC,-2%,0.35,–,–
Nc1ncccc1CN1CCOC2(CCCC2)C1,-8%,0.73,–,–
CCc1nncn1CCNC(=O)N[C@@H](C)Cc1cccc(F)c1,-3%,0.38,–,–
O=C(NC[C@H]1CN2CCN1CC2)c1csc(Cl)c1,-6%,0.93,–,–
CN1C[C@@H]2CCC[C@H]1CN(c1cc(C(N)=O)ccn1)C2,-15%,1.66,–,–
C[C@H](NCCc1ccccc1F)C1CC1,-8%,1.01,–,–
COc1cccc([C@H]2CN(C(=O)c3cccnc3O)[C@@H]3C4CCN(CC4)[C@H]23)c1,-7%,1.06,–,–
c1cnc(CN2CCO[C@@]3(CCc4ccccc43)C2)nc1,-10%,1.14,–,–
COc1cccc([C@H]2CN(C(=O)c3cccc(O)c3)[C@@H]3C4CCN(CC4)[C@H]23)c1,-12%,1.61,–,–
CN1CC[C@H]2CCN(c3ncccc3Cl)[C@H]2C1,-5%,0.7,–,–
CCN1CCN(C2CCN(C(C)C(=O)Nc3ccc(C#N)c(Cl)c3)C2)CC1 (stereo not given),-5%,0.95,–,–
CN(C)S(=O)(=O)c1cccc2c1CCNC2,3%,-0.48,–,–
Cc1oncc1C(=O)N1C[C@@H]2CC[C@H]1CN(Cc1cscn1)C2,-7%,1.12,–,–
C=CCNC(=O)c1c(COc2ccc(C)cc2)n(CCN2CCOCC2)c(C)cc1=O,1%,-0.11,–,–
